Laboratory results from article PMC4336329 (PLoS ONE, 2015).
The whole screen tested about 310,000 compounds, of which about 14,000 (4.5%) showed an effect of 50% or more. The effect is printed as a negative number. The list shows a part of the results.

target: human ether-à-go-go-related gene (hERG) potassium channel (human, UniProt Q12809); test: primary screen, population patch clamp on CHO cells stably expressing hERG
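Further: peak tail current of the secondary pulse compared with the same well before compound.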

Chain of human ether-à-go-go-related gene (hERG) potassium channel (Q12809 whole entry, looked up): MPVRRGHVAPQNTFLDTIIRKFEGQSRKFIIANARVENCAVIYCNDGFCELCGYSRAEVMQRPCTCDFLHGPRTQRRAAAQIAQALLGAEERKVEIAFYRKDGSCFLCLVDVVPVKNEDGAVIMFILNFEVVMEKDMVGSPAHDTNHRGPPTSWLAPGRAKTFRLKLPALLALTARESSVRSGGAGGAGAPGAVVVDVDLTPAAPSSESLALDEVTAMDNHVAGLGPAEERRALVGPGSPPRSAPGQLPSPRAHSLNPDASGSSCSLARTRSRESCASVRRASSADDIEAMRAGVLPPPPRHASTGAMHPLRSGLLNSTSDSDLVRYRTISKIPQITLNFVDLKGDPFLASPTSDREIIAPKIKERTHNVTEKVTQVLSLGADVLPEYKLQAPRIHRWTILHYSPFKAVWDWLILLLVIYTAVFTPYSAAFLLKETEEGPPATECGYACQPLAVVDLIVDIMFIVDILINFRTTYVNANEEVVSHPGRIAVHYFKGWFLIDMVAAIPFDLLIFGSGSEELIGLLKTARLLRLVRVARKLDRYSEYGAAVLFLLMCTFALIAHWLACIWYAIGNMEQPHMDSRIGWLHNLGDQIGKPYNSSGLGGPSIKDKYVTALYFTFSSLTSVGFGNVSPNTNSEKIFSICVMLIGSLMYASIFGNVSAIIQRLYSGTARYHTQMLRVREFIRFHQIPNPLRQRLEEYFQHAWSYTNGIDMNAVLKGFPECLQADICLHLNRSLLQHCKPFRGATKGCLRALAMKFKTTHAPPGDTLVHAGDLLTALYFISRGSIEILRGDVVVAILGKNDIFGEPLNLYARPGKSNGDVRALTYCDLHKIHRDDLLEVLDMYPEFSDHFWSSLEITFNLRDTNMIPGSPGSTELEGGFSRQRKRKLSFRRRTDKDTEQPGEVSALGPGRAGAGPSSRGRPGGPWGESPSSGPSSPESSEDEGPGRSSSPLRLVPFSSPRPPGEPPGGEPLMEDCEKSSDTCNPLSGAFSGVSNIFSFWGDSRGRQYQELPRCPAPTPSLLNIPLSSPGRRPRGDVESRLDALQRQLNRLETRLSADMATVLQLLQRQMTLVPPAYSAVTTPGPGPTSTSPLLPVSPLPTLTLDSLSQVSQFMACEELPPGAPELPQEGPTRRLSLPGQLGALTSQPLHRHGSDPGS

Row | SMILES | hERG current change (%, negative = inhibition) at 10uM [%]
1 | CN1C(=O)N(C)C(=O)C2(Cc3ccccc3N3CCOCC32)C1=O (stereo not shown) | -1.2
2 | CC(C)(C)CC(=O)OCC(=O)Nc1cc(C(C)(C)C)nn1-c1ccccc1 | -20.2
3 | Cc1nnc(SCC(=O)N2CCOCC2)c2ccccc12 | -5.92
4 | O=C(N/N=C/c1cccnc1)c1ccc2ccccc2c1O | 17
5 | CC(C)CC1Nc2ncnc(N3CCN(c4ccccc4)CC3)c2N(Cc2ccccc2)C1=O.O=C(O)C(F)(F)F (stereo not shown) | -5.53
6 | CN(Cc1ccccc1)C(=O)c1ccc(NC(=O)Cc2cccc(NC(=O)C3CCN(C(=O)C4CCC4)CC3)c2)cc1 | 5.07
7 | O=C(Nc1cc(Sc2nc3ccccc3s2)cc([N+](=O)[O-])c1)c1cccc(F)c1F | 9.73
8 | COC(=O)[C@@H]1C[C@H]2CC[C@H](O)C[C@H]2N1Cc1ccccc1OS(=O)(=O)c1ccc(C)cc1 | 1.14
9 | CC(NC(=O)C1C(=O)N(CCO)C2(C)CC1c1ccccc1O2)c1ccccc1 (stereo not shown) | -14.4
10 | CCOC(=O)C1CCN(C(=O)CC(C)S(=O)(=O)c2ccc3c(c2)NC(=O)CO3)CC1 (stereo not shown) | 11.8
11 | COc1ccc2c(c1)C1=NN(/C(C)=C/C(C)=O)C(c3ccc(F)cc3)C1CC2 (stereo not shown) | -20.4
12 | CC(Oc1ccccc1F)C(=O)NNC(=O)C1CC(=O)N(c2ccc3c(c2)OCCO3)C1 (stereo not shown) | 4.38
13 | COc1cccc(-c2nnc3sc(-c4ccccn4)nn23)c1 | -12.4
14 | Cc1cc(Cl)ccc1OCC(=O)OCC(=O)NC1CCS(=O)(=O)C1 (stereo not shown) | -12.2
15 | COc1ccc(NC(=O)CN2C(=O)CC(C)S(=O)(=O)c3ccccc32)cc1 (stereo not shown) | 6.57
16 | CC(=O)C12CC(C)=C(C)CC1CC1C3CCC4=CC(=O)CCC4(C)C3CCC12C (stereo not shown) | 6.42
17 | Cc1nc2ncnn2c(C)c1CCC(=O)N1CCN(C(=O)c2ccco2)CC1 | -3.45
18 | N#Cc1c(NCCN)nc(-c2ccco2)c2c1CCCC2 | -47
19 | Cc1ccc2cc(C(c3nnnn3Cc3ccccc3)N3CCN(c4ccccc4)CC3)c(=O)[nH]c2c1 (stereo not shown) | -16.2
20 | CCN(CC)CCCn1c2c(c(SCC(=O)Nc3cccc(C(C)=O)c3)nc1=O)CCC2 | -59.4
21 | Cc1ccc(NC(=S)NNC(=O)c2ccc(N3CCOCC3)c([N+](=O)[O-])c2)cc1Cl | 6.24
22 | COc1ccc(OCC(O)CNC(=O)Nc2ccc(Cl)cc2)cc1 (stereo not shown) | 6.64

Row | SMILES | hERG current change (%, negative = inhibition) at 10uM [%]
23 | CCN1CCN(C(=O)CNC(=O)c2nn(-c3ccc(OC)cc3)c(=O)c3ccccc23)CC1 | 16.3
24 | CCN(C(=O)CSc1nnc(SC)s1)c1c(N)n(Cc2ccccc2)c(=O)[nH]c1=O | 11.3
25 | CCOC(=O)C1=C(C)N(c2nonc2NC(C)=O)C(N)=C(C#N)C1c1ccccc1F (stereo not shown) | 0.315
26 | Cc1ccc(C(=O)NN2C(=O)CSC2=S)cc1 | 3.95
27 | Clc1cccc(C2CCN(Cc3nc(CC4CC4)no3)C2)c1 (stereo not shown) | -23.8
28 | CCOc1cc2[nH]c(=O)n(Cc3ccc(C(=O)NCCOC)cc3)c(=O)c2cc1OCC | -1.14
29 | CCc1cccc(C)c1NC(=O)COC(=O)C(NS(=O)(=O)c1ccc(Cl)cc1)C(C)O (stereo not shown) | 1.86
30 | Cc1csc(NC(=O)c2ccncc2)n1 | 0.28
31 | O=C1CCCC2=C1C(c1ccncc1)Nc1ccccc1N2 (stereo not shown) | 10.2
32 | Cc1cc(C)c2c(-n3cccc3)c(NC(=O)OCc3ccccc3)sc2n1 | 7.96
33 | Cc1noc(C)c1CSc1nc2sc3c(c2c(=O)n1C)CCCC3 | 0.356
34 | CCCCNC(=O)C1c2ccccc2C(=O)N(c2ccc(OC)cc2)C1c1ccc(OC)cc1 (stereo not shown) | -18.6
35 | O=C(CCN1C(=O)C2CC=CCC2C1=O)Nc1cccc(Cl)c1 (stereo not shown) | -11.8
36 | COc1ccc(CN(C)C(=O)c2ccc(COc3ccccc3)cc2)c(OC)c1 | 9.48
37 | CC(=O)N1CCN(C(=O)CCNS(=O)(=O)c2ccc(Br)cc2)CC1 | -1.75
38 | Cc1cccc(-c2nnc(-c3ccccc3)o2)c1 | -0.982
39 | COc1cccc(N=c2oc3c(C)ncc(CO)c3cc2C(N)=O)c1 | -8.59
40 | O=C(NC1CCCCC1)C(c1c(F)cccc1Cl)N(C(=O)c1csnn1)C1CC1 (stereo not shown) | 16.3
41 | FC(F)(F)c1ccc(-c2n[nH]c(=S)o2)nc1 | 9.31
42 | CC(=O)c1ccc(NC(=O)Cn2c(=O)oc3ccccc32)cc1 | 21.1
43 | COC(=O)c1ccc(NC(=O)c2cc3c(CO)cnc(C)c3oc2=Nc2cccc(C(N)=O)c2)cc1 | 15.5
